Paper PMC4336329 (PLoS ONE, 2015)
Out of some 310,000 compounds screened, about 14,000 (4.5%) showed an effect of 50% or more. Effects have a minus sign here. The list shows a part of the results.

These compounds were tested against human ether-à-go-go-related gene (hERG) potassium channel (human, UniProt Q12809) (assay: primary screen, population patch clamp on CHO cells stably expressing hERG).
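Note: peak tail current of the secondary pulse compared with the same well before compound.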

human ether-à-go-go-related gene (hERG) potassium channel, sequence (Q12809 whole entry, looked up): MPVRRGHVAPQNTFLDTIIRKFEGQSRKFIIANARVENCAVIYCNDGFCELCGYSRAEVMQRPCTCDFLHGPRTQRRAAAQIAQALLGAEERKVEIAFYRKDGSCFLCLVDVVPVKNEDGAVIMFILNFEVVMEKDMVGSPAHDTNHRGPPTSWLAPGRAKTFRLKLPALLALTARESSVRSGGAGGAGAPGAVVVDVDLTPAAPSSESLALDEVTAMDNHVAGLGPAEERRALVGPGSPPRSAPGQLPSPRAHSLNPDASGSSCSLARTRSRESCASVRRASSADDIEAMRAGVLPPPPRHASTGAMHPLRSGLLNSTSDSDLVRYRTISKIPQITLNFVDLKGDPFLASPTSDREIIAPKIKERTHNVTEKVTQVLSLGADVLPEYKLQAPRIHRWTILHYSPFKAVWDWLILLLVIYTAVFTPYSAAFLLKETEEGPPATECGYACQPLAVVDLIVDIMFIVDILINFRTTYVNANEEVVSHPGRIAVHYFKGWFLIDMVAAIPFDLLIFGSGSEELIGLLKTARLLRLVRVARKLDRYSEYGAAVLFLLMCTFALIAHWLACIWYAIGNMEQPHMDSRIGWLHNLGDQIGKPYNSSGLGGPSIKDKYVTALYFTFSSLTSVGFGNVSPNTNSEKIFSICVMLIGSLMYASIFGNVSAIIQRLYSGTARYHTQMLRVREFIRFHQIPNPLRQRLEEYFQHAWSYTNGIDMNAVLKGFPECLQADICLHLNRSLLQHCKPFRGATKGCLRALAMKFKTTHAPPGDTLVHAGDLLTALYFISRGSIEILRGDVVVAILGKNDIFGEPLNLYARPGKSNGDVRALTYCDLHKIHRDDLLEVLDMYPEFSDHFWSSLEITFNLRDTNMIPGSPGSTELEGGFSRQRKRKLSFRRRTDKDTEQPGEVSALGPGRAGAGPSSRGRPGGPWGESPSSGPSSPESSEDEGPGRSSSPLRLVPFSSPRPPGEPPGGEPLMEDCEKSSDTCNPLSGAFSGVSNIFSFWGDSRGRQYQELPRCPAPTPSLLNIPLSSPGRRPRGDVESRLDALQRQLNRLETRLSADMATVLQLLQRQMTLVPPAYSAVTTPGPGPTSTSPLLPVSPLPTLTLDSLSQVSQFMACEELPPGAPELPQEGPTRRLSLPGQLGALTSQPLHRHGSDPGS

Structure (SMILES) | hERG current change (%, negative = inhibition) at 10uM [%]
Clc1ccc(-n2nnnc2CN2CCOCC2)cc1Cl | 7.26
CCN(CC(=O)NCc1cccs1)C(=O)/C=C/c1ccc(OC)cc1OC | -26.4
CCCn1c(N)c(N(CCOC)C(=O)c2ccc([N+](=O)[O-])cc2Cl)c(=O)[nH]c1=O | 24.9
CCc1ccc(OCC(=O)NNC(=O)CSc2nnc(-c3ccc(C)cc3)n2C)cc1 | -5.02
COc1ccc(CNC(=O)CSc2nnc3c(Cl)cc(C(F)(F)F)cn23)cc1OC | -5.83
CCOC(=O)N1CCC(Nc2c(NCCN3CCN(Cc4ccccc4)CC3)c(=O)c2=O)CC1 | -1.53
CN(C)c1ccc(N=Cc2c(O)n(CCC3=CCCCC3)c(=O)[nH]c2=O)cc1 | 0.675
O=C(CSc1nnc(C2CC2)n1-c1ccccc1)NCCN1C(=O)CSC1=O | 10
CCN(CC(=O)NC1CCS(=O)(=O)C1)C(=O)c1ccc(S(=O)(=O)N(CC)CC)cc1 (stereo not drawn) | 4.99
O=C(N/N=C/c1ccncc1)c1ccc(NC(=O)c2cccc(Cl)c2)cc1 | 22.7
COc1ccc(N2CC(C(=O)NCc3cccnc3)CC2=O)cc1 (stereo not drawn) | 1.33
CCn1ncc([N+](=O)[O-])c1C(=O)N1CCc2ccccc2C1 | 5.81
Cc1nc(N)c2c(Cc3cccc4ccccc34)nn(C(C)(C)C)c2n1 | 8.82
COC(=O)c1ccc(C(=O)OC)c(NC(=S)N2CCC(N3CCCCC3)CC2)c1 | -15
Cc1cc(C)c(C)c(S(=O)(=O)NC(C(=O)O)C(C)C)c1C (stereo not drawn) | 34.3
O=C1N(Cc2cccc(Cl)c2)C[C@@H]2C[C@@H](c3cccc4cccnc34)N3CCC[C@@]123 | -78
Cc1c(Cc2ccccc2)c(=O)oc2c(C)c(OCC(=O)NCC3CCC(C(=O)O)CC3)ccc12 (stereo not drawn) | 15.7
Cn1nnnc1SCC(=O)Nc1ccccc1C(N)=O | 37
O=C(CN(C(=O)CNC(=O)c1ccco1)c1ccc(F)c(Cl)c1)NC1CCCCC1 | 3.86
CCOC(=O)CCSc1nc(-c2ccc3c(c2)OCO3)cc(C(F)(F)F)c1C#N | 13.2
Cc1cccc(-c2nc(CSCC(=O)NCCCN3CCOCC3)c(C)o2)c1 | -11.3

Structure (SMILES) | hERG current change (%, negative = inhibition) at 10uM [%]
Cn1c(=O)cc(SCC(=O)NCC2COc3ccccc3O2)c2ccccc21 (stereo not drawn) | -14.2
CCn1c(SCC(=O)N2CCCC2)nnc1-c1ccc(N)cc1 | 8.63
COCCn1c(SCC(=O)Nc2ccc(Cl)cn2)nnc1-c1ccncc1 | -54.2
c1ccc(Nc2nc(-c3ccccc3)ns2)cc1 | 22.8
COc1cccc(NC(=O)CN2C(=O)CSc3ccc(S(=O)(=O)N4CCCCC4)cc32)c1 | 0.476
Cc1cc(C)cc(N=c2c([N+](=O)[O-])nn(-c3ccc4c(c3)OCCO4)n2O)c1 | 1
CCN(CC)c1ccc(N=Cc2c(O)n(-c3cc(OC)ccc3OC)c(=O)[nH]c2=O)cc1 | 12.3
O=c1cc(CSc2nnc3ccccn23)c2c(ccc3ccccc32)o1 | -23.5
CC(C)(C)NC(=O)C(=O)NNC(=O)c1ccccc1 | 5.58
Cc1cccn2c(=O)c3cc(C(=O)NCCN4CCOCC4)c(=N)n(CCc4ccccc4)c3nc12 | -75
CCc1nnc(NC(=O)c2ccc(S(C)(=O)=O)cc2)s1 | -12.6
COc1ccc2[nH]c(=O)c(CN(C(=O)c3cccnc3)c3ccc(C)c(C)c3)cc2c1 | 14.3
CCn1nc(C(=O)Nc2nc(-c3ccccn3)cs2)c2ccccc2c1=O | -2.53
COc1cccc(C(=O)/C=C/Nc2ccc(S(=O)(=O)Nc3onc(C)c3C)cc2)c1 | 25.8
O=C(CSc1nnc2ccccn12)N1CCc2ccccc21 | 9.5
CCN(CC)CCN(Cc1cc2cc3c(cc2[nH]c1=O)OCO3)C(=S)NC | -13.9
CC(=O)[C@@H]1[C@@H](C(=O)c2ccc(F)cc2)[C@]2(C(=O)Nc3ccccc32)[C@H]2C=Cc3cc(F)ccc3N12 | 1.68
COC(=O)c1sc2nc(C)cc(C)c2c1N | 20
O=C(Nc1cccc(-c2nc3ccccc3s2)c1)c1cc(=O)c2ccccc2o1 | 7.92
O=C(COC(=O)c1cccs1)Nc1nnc(-c2ccccc2)o1 | 1.12
Cc1ccc(Cl)c(NC(=O)COC(=O)C2CCC2)c1Cl | 14.7

Structure (SMILES) | hERG current change (%, negative = inhibition) at 10uM [%]
CCOC(=O)NC(Nc1nnc(C)s1)(C(=O)OCC)C(F)(F)F (stereo not drawn) | 9.05
COC(=O)C1CCCN1C(=O)C12CC3CC(CC(C3)C1)C2 (stereo not drawn) | 10.1
CS(=O)(=O)NNC(=O)CN1C(=O)C2C3C=CC(C3)C2C1=O (stereo not drawn) | 25.2
COc1ccccc1Nc1ncccc1[N+](=O)[O-] | 23.1
CCc1ccc(C(=O)Nc2ccc(S(=O)(=O)Nc3nc(C)cc(C)n3)cc2)o1 | 0.401
CC(C)CN(C(=O)COC(=O)C1=COCCO1)c1c(N)n(Cc2ccccc2)c(=O)[nH]c1=O | 10.8
COc1ccc(CN2CCN(C(=O)c3ccc(CNS(=O)(=O)c4ccc(C)cc4)cc3)CC2)c(OC)c1OC | -28.7
CCCn1c(N)c(C(=O)COC(=O)CCS(=O)(=O)c2ccc(C)cc2)c(=O)[nH]c1=O | 15.8
COc1ccc(Br)cc1CNC(=O)CCN1C(=O)COc2ccccc21 | -9.62
CCCn1nnc(NC(=O)C(C)Oc2ccc(Cl)cc2Cl)n1 (stereo not drawn) | -13.5
COc1ccc(C(O)(CCN2CCCCC2)C2CCCCC2)cc1.Cl (stereo not drawn) | -27.4
Cc1cccc(C)c1NC(=O)c1ccc(CN2CCc3ccccc3C2)cc1 | 4.57
CCC(C)N(C(=O)c1csnn1)C(C(=O)NC1CCCC1)c1c(F)cccc1Cl (stereo not drawn) | 11.6
O=C(CCNc1cccc(F)c1)c1cccc([N+](=O)[O-])c1 | -0.918
CN(C(=O)Cn1cnc2ccccc2c1=O)C1CCS(=O)(=O)C1 (stereo not drawn) | 3.29
CC1CCC(NC(=O)Cn2c(=O)oc3cc(S(=O)(=O)N4CCCC4)ccc32)CC1 (stereo not drawn) | 12.6
O=C(c1ccc(Cn2cc(Br)cn2)cc1)N1CCN(c2ccccc2)CC1 | -57.4
Cc1ccc(C2(O)CN3CCC2CC3)cc1.Cl (stereo not drawn) | 4
CC(=O)O[C@H]1c2ccccc2-c2ccccc2[C@@H]1OC(C)=O | 4.19
O=C(Nc1c2c(nn1-c1ccc([N+](=O)[O-])cc1)CS(=O)(=O)C2)c1ccco1 | -64.7
COc1ccccc1C(=O)NC(=S)NNC(=O)c1sc2ccccc2c1Cl | 24

Structure (SMILES) | hERG current change (%, negative = inhibition) at 10uM [%]
COc1ccc(C(=O)NN(C)c2nc(C(F)(F)F)nc3ccccc23)cc1 | -20.5
Cc1cc(Cl)c(S(N)(=O)=O)cc1OCC(=O)NC1CCCCC1 | 9.3
Cc1ccc(C(=O)Nc2ccc3c(c2)OCCO3)c(C)c1 | 8.27
COc1ccc(N2CCN(C(=O)[C@H](C)NC(=O)c3ccccc3Cl)CC2)cc1 | 10.8
O=C(O)C1CCC(CNS(=O)(=O)c2ccccc2)CC1 (stereo not drawn) | 19
COC(=O)C1=C(c2ccc(OC)c(OC)c2)C[C@@H]2CC[C@H]1N2C(=O)NCCOc1ccccc1Cl | -12.7
O=C1CC(N2CCN(c3ncccn3)CC2)C(=O)N1CCc1ccccc1 (stereo not drawn) | 17.3
Cc1nnc(SCC2=C(C(=O)O)N3C(=O)C(NC(=O)Cn4ncc(Cl)c4C)C3SC2)s1 (stereo not drawn) | 26.9
O=C(c1ccc(Cl)cc1)C(CN1CCCC1)c1ccccc1 (stereo not drawn) | -10.3
COc1ccc(N=C2SCC(c3ccc([N+](=O)[O-])cc3)=NN2CCO)cc1 | -53.1
O=C1C=C(Nc2ccccc2)CC(c2ccccc2)C1 (stereo not drawn) | 9.51
COc1ccc(-c2cc(C)no2)cc1S(=O)(=O)N1CCN(c2ccccc2F)CC1 | 3.36
COc1cccc(CNC(=O)C(=O)NCCC2CCCCN2S(=O)(=O)c2ccc(C)cc2)c1 (stereo not drawn) | -0.335
CC12CCC(C(=O)Nc3ccc4c(c3)OCCO4)(OC1=O)C2(C)C (stereo not drawn) | -8.28
Cc1ccc2[nH]c3c(=O)n(CC(=O)NCCCN4CCN(c5ccc(F)cc5)CC4)ncc3c2c1 | 14.8
COc1ccc(OCC(=O)NC(=S)Nc2ccc(S(=O)(=O)Nc3cc(OC)nc(OC)n3)cc2)cc1 | 10.7
CCOc1nc(SCCOc2ccccc2)nc(N(C)C)n1 | -13.7
COc1ccc(CN(C(=O)c2ccc(-c3ccccc3)[nH]2)C(C(=O)NCC2CCCO2)c2ccc(C)o2)cc1 (stereo not drawn) | -13.4
COc1ccc(-c2noc(CCCc3ccccc3)n2)cc1OC | -8.78
CCCCOC(=O)CCc1n[nH]c(=O)[nH]c1=O | 1.61
COc1ccc(CNC(=O)/C(C#N)=C2\N=C(NC(=O)c3cccs3)c3ccccc32)cc1 | -0.714
